Screen size: about 360,000 compounds; about 17,000 (4.7%) were called active. The shares of active, inactive and inconclusive entries below differ from those in the screen. Cut-off read from the data, not from the text of the source: active = activity change below about -50%; inconclusive = mostly about -30% to -49%; inactive = weaker than that.
Assay: qHTS for Inhibitors of Inflammasome Signaling: IL-1-beta AlphaLISA Primary Screen
Settings: THP-1 LPS/ATP IL-1B secretion, 16 h; at 57.5 µM, hits give low values
In short: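 Secreted IL-1B measured by AlphaLISA bead assay after 16 h compound exposure of THP-1 cells; compounds (final up to 57.5 uM) added 1 h before LPS (250 ng/mL) and ATP (1.25 mM) stimulation; lower signal means less secretion.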
For `CCOC(=O)N1CCC(N2Cc3cccc(C(=O)Nc4ccc(OC)c(OC)c4)c3C2=O)CC1`, the activity change was inconclusive: -39.8%.
For `Cc1ccc(-c2nn(-c3cccc(F)c3)cc2CNCc2cccnc2)o1`, the activity change was inconclusive: -37.2%.
With `CCCn1cnc2cc(NCc3cccc(OC)c3)ccc21` the activity change was inactive: -8%.
In the case of `N/N=C/C(=N\Nc1ccc(Cl)cc1)C(=O)c1ccncc1`, the activity change was active: -50.8%.
With `O=C(CCNc1cccc(Cl)c1)c1ccco1` the activity change was inactive: 3.65%.
In the case of `O=C(C(=O)N1CCC(Cc2ccccc2)CC1)c1cccs1`, the activity change was inconclusive: -44.9%.
With `CN1CCN(c2ccc(NC(=O)c3ccc(C(F)(F)F)cc3)cn2)CC1` the activity change was inconclusive: -31.1%.
With `Cc1cccc(N(CC(=O)NC2CC3CCC2C3)S(=O)(=O)c2ccccc2)c1` (stereo not given) the activity change was inactive: 0%.
For `COC(=O)C1=C(C)N(Cc2ccccc2)C(=NCc2cc(OC)c(OC)c(OC)c2)N[C@H]1c1ccccc1`, the activity change was inconclusive: -38%.
With `COc1cc2c(cc1OC)CN(CC(=O)Nc1ccc(C)c(C)c1)CC2` the activity change was inactive: -4.51%.
In the case of `O=C(/C=C/[C@H]1O[C@@H](n2cnc3c(NC(=O)c4ccccc4)ncnc32)[C@H](O)[C@@H]1O)NCCc1ccc(F)cc1`, the activity change was inconclusive: -32%.
For `COC(=O)CN1C(=O)[C@H]2[C@@H](/C=C/c3ccccc3)N3C(=O)CN(Cc4ccccc4)C(=O)[C@@]3(C)[C@H]2C1=O`, the activity change was inactive: 11%.
In the case of `COC(=O)C1=C(C)N(Cc2ccccc2)C(=NCC(C)C)N[C@H]1c1cccc(C(F)(F)F)c1`, the activity change was inconclusive: -46.6%.
For `CCN1C(=O)C(CC(=O)Nc2ccc(F)cc2)N(Cc2cccs2)C1=S` (stereo not given), the activity change was inconclusive: -31.7%.
With `Cc1cc(C)c(COc2ccc(/C=N/n3c(C)n[nH]c3=S)cc2)c(C)c1` the activity change was inconclusive: -48.6%.
In the case of `COc1ccc(OC)c(NC(=O)NC2CCCCCCC2)c1`, the activity change was inconclusive: -31.2%.
In the case of `COc1ccc(CC(N)c2csc(NC(=O)c3ccc(OC)cc3)n2)cc1` (stereo not given), the activity change was inconclusive: -39.7%.
For `Cc1ccc(CNC(=O)CN2C(=O)CSc3ccc(S(=O)(=O)N4CCCCC4)cc32)cc1`, the activity change was inconclusive: -41%.
With `O=C1NCCCN1C1OC(CO)C(O)C1O` (stereo not given) the activity change was inactive: 8.84%.
With `COc1cccc(NC(=O)C(=O)NCCC2CCCCN2S(=O)(=O)c2ccccc2)c1` (stereo not given) the activity change was inconclusive: -42.5%.
In the case of `CC1CCCC(C)N1CCCNC(=O)c1ccc2c(c1)NC(=O)c1ccccc1S2` (stereo not given), the activity change was active: -71.3%.
For `COc1ccc(C(=O)Nc2oc(-c3ccccc3)c(-c3ccccc3)c2C#N)cc1`, the activity change was inconclusive: -33.2%.
For `CSc1cccc(NC(=S)N(CCCN2CCC(C)CC2)Cc2cccs2)c1`, the activity change was inconclusive: -37.4%.
In the case of `O=C(Nc1cc(-c2ccccc2)[nH]n1)c1ccc(Cl)cc1`, the activity change was inconclusive: -41.1%.
In the case of `Cc1cccc(C)c1NC(=O)C(c1ccc(C#N)cc1)n1c(=O)c(-c2ccccc2)nc2ccccc21` (stereo not given), the activity change was active: -50.1%.
With `Cc1cccn2c(=O)nc(SCC(=O)NCc3ccc4c(c3)OCO4)nc12` the activity change was inactive: 2.24%.
In the case of `Cc1ccc(C)c(OCCCCN2CCNCC2)c1C`, the activity change was inactive: -13.2%.
For `CN1CCN(CCC(=O)N2c3ccccc3Sc3ccc(C(F)(F)F)cc32)CC1`, the activity change was inconclusive: -47.1%.
In the case of `COCCNC(=O)CN(C(=O)Cn1nnc2ccccc21)c1ccc(F)c(Cl)c1`, the activity change was inconclusive: -33.3%.
With `O=C(c1ccc(Cn2c(=O)[nH]c3ccccc3c2=O)cc1)N1CCN(c2ccccn2)CC1` the activity change was inconclusive: -40.4%.
For `O=C(O)/C=C\C(=O)Nc1ccc(N2CCN(c3cccc(Cl)c3)CC2)cc1`, the activity change was inconclusive: -48.5%.
In the case of `CC(C)c1ccc(NC(=O)CSc2n[nH]c(=O)n2-c2ccc3c(c2)OCCO3)cc1`, the activity change was inconclusive: -40.4%.
With `COc1ccc(C2CC(c3ccc(Cl)cc3)n3nc(N)nc3N2)cc1` (stereo not given) the activity change was inconclusive: -43.3%.
With `CN(C)CC[C@@H](c1ccc(Cl)cc1)c1ccccn1` the activity change was active: -110%.
In the case of `COC(=O)[C@H](Cc1ccccc1)NC(=O)/C=C/[C@H]1O[C@@H](n2ccc(=O)[nH]c2=O)[C@H](O)[C@@H]1O`, the activity change was inactive: 26.9%.
For `N#Cc1cccc(-c2csc(C(O)(c3ccccc3)C(F)(F)F)n2)c1` (stereo not given), the activity change was inactive: 3.82%.
In the case of `CC(=O)Oc1ccc(/C=C2/Oc3ccccc3C2=O)cc1`, the activity change was inconclusive: -41.3%.
In the case of `COc1cc(C=CC(=O)c2ccccc2)cc(OC)c1OC`, the activity change was active: -115%.
With `O=c1c2[nH]c3ccccc3c2ncn1C1CCCCC1` the activity change was inconclusive: -31.7%.
For `Cc1ccc(S(=O)(=O)N2CCN(C(=O)c3ccc(N4CCC(C)CC4)c([N+](=O)[O-])c3)CC2)cc1`, the activity change was inconclusive: -47.9%.
In the case of `Cc1cc(C)c(NC(=O)CN2C(=O)NC3(CCCCC3)C2=O)c(Cl)c1`, the activity change was inconclusive: -35%.
In the case of `COc1ccc(N(CC(=O)Nc2ccc3c(c2)OCO3)S(=O)(=O)c2ccc(F)cc2)cc1`, the activity change was inactive: 0%.
With `CCN(CC)CCNC(=O)c1ccc(NC(=O)/C=C/c2cc(OC)c(OC)c(OC)c2)cc1` the activity change was inconclusive: -42.9%.
With `CCc1nc(CN(C)C(=O)C2CCC(=O)N(Cc3cccc(F)c3)C2)no1` (stereo not given) the activity change was inactive: 2.14%.
In the case of `CCN(CC(O)CON=C1c2ccccc2-c2ccccc21)S(=O)(=O)c1ccc(C)cc1` (stereo not given), the activity change was inconclusive: -45.3%.
For `O=C(Nc1ccccn1)c1ccc(-c2ccccc2)cc1`, the activity change was active: -58.8%.
In the case of `CCC1(C)Cc2c(sc3c2c(=O)n(C)c2nnc(SCC(=O)c4ccccc4)n32)CO1` (stereo not given), the activity change was inconclusive: -33.3%.
With `Cc1cc(C)c(C)c(N=Nc2nc3ccccc3n2C)c1C` the activity change was inconclusive: -42.8%.
For `COc1cccc(-c2cc(CC3(O)CCN(CCCc4ccccc4)CC3)on2)c1`, the activity change was inconclusive: -43.1%.
In the case of `COc1cccc(CNC(=O)c2cc(S(=O)(=O)N3CCOCC3)cn2C)c1`, the activity change was inconclusive: -33.4%.
With `CC(C)CN(CC(C)C)C(=O)c1cccc(S(=O)(=O)N2CCc3ccccc32)c1` the activity change was inconclusive: -48.4%.
In the case of `Cc1ccnc(NC(=O)Nc2ccc3c(c2)N(C)C(=O)CS3)c1`, the activity change was inconclusive: -49%.
In the case of `O=C(c1cccc(Cl)c1)N1CCN(S(=O)(=O)c2ccc(Cl)s2)CC1`, the activity change was inconclusive: -30.9%.
In the case of `O=C(N/N=C/c1cn(-c2ccccc2)nc1-c1cccnc1)c1cccnc1`, the activity change was inconclusive: -40.4%.
For `COc1ccc(CCNC(=O)c2cc3cc(F)ccc3nc2C)cc1OC`, the activity change was inactive: 44%.
For `COc1ccccc1-c1cc(NC=O)c2ncc(-c3ccc(S(C)(=O)=O)cc3)n2c1`, the activity change was inconclusive: -40.2%.
In the case of `Clc1ccc2nc(CN3CCCc4ccccc43)cn2c1`, the activity change was active: -78.4%.
For `O=C(CN1C(=O)NC(Cc2c[nH]c3ccccc23)C1=O)Nc1cccc(S(=O)(=O)N2CCCC2)c1` (stereo not given), the activity change was inactive: 10.7%.
In the case of `C/C(=N\NC(N)=S)C12CC3CC(CC(C3)C1)C2`, the activity change was inconclusive: -30.5%.
With `COc1cccc(CNCc2ccc(OC)cc2OC)c1` the activity change was active: -56.5%.
For `Clc1cc(Cl)c2nc(N3CCCCC3)sc2c1`, the activity change was inconclusive: -31.3%.
With `Cc1c(C(=O)Nc2ccccc2)sc2nc(-c3ccccc3)cn12` the activity change was inconclusive: -37.9%.
In the case of `COc1ccc(-c2nnc(-c3cccnc3)o2)cc1`, the activity change was inconclusive: -38.4%.
With `Cc1ccc2cc(CN(Cc3ccc4c(c3)OCO4)Cc3nnnn3Cc3ccco3)c(=O)[nH]c2c1` the activity change was active: -52.7%.
With `NC(CCc1ccccc1)c1csc(NC(=O)Nc2ccccc2Oc2ccccc2)n1` (stereo not given) the activity change was active: -79.3%.
With `CCOc1cc(OCC)c(C(C)=O)cc1OCC` the activity change was inactive: -16.4%.
In the case of `Cc1ccc(C)c2[nH]c(=O)c(CCNC(=O)c3ccc(S(=O)(=O)N4CCCC4)cc3)cc12`, the activity change was inconclusive: -42.4%.
For `Cc1ccc(-c2nnc(N3CCOCC3)c3ccccc23)cc1S(=O)(=O)NCC1CCCO1` (stereo not given), the activity change was inconclusive: -41.8%.
With `O=[N+]([O-])c1nn(-c2ccccc2)n(O)c1=NC1CCN(Cc2ccccc2)CC1` the activity change was inconclusive: -36.4%.
For `CC(C)[C@H](NC(=O)OC(C)(C)C)c1nnc(SCc2cccc(F)c2)o1`, the activity change was inactive: 12.2%.
For `C/C=C(\CS(=O)(=O)c1ccccc1)S(=O)(=O)c1ccccc1`, the activity change was inconclusive: -42.9%.
With `COC1CCCN(Cc2cn(C)nc2-c2ccc(Oc3ccccc3)cc2)C1` (stereo not given) the activity change was inconclusive: -30.5%.
With `Cc1ccc(C(=O)Nc2ccc3c(c2)OCCO3)cc1` the activity change was inconclusive: -34.9%.
With `CCOc1cc(-c2nc3n(c(=O)c2C#N)CCS3)ccc1O` the activity change was inconclusive: -31.8%.
In the case of `Cc1csc(=O)n1CCC(=O)OCC(=O)N(C)c1c(N)n(Cc2ccccc2)c(=O)[nH]c1=O`, the activity change was inactive: -7.77%.
In the case of `Cn1nc(C(=O)NNC(=O)Cc2ccc(S(=O)(=O)N3CCOCC3)s2)c2ccccc2c1=O`, the activity change was inactive: 7.91%.
For `COc1cc(Cl)c(C)cc1NC(=O)CSc1ccc(NC(C)=O)cc1`, the activity change was inconclusive: -33.6%.
In the case of `CC(C)c1nc(C(=O)N2CCc3c([nH]c4ccccc34)C2c2ccccn2)cs1` (stereo not given), the activity change was active: -63.5%.
For `COc1ccccc1CCC(=O)Nc1cc(S(=O)(=O)N2CCCCC2)ccc1N1CCN(C)CC1`, the activity change was inconclusive: -42.8%.
With `Cc1cc(CN(C)C(=O)c2cc(COc3ccc4ncccc4c3)on2)on1` the activity change was inactive: -0.483%.
For `CCC(=O)Nc1cccc(-c2ccc(N3CCC(C)CC3)nn2)c1`, the activity change was inconclusive: -33.9%.
With `O=C(c1ccc([N+](=O)[O-])o1)N1CCN(c2nc3c(F)cc(F)cc3s2)CC1` the activity change was active: -71.1%.
With `CN(C)c1ccc(CNc2ccc3c(c2)ncn3C)cc1` the activity change was active: -58.6%.
In the case of `Cc1cc(C)n(CCCNC(=O)C(C)(C)Oc2ccc(Cl)cc2)n1`, the activity change was inactive: 0%.
With `CCN(CC)S(=O)(=O)c1cc(C(=O)Nc2ccccc2[N+](=O)[O-])ccc1Cl` the activity change was active: -88.9%.
% is set by controls: 0 for no effect and ±100 for the full control effect.
